According to PubChem BioAssay AID1508642 (National Center for Advancing Translational Sciences (NCATS), 2021):
Among all 43,000 compounds or so, about 200 (0.47%) were called active. Another 12% or so got no clear call; they are omitted. The call rests on the fitted dose curve; in most records, active means well fitted cell-killing curve with a large enough effect; inconclusive means small, poorly fitted or top-dose-only effect, or effect the other way; inactive means flat fitted curve, though single readings scatter. This is one part of the list.

assay: Cell viability qHTS assay in S16 Pmp22-F2sN cells; settings: S16 Pmp22-F2sN Schwann cells (luciferase reporters placed in the Pmp22 gene) viability, CellTiter-Glo, 24 h; series mostly up to 57.5 µM; activity change, negative = cytotoxicity: at the top concentration; further: nearly all actives have a fitted effect of over 65% in size
Procedure, shortened: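 Seed 500-1,000 S16 Pmp22-F2sN cells per well in phenol-red-free DMEM with 10% heat-inactivated FBS; pin-add 23 nL compound; incubate 24 h at 37C; add CellTiter-Glo, wait 15 min protected from light; read luminescence.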
On the % scale 0 is the no-effect control and ±100 the full control effect.

SMILES | activity change, negative = cytotoxicity
Cc1ccc(NC(=O)Cn2c(=O)n(CCc3ccccc3)c(=O)c3c4c(sc32)CCCC4)c(C)c1 | inactive: 10.9%
CN(C(=O)C1=CC(c2ccc3c(c2)OCO3)=NS(=O)(=O)N1C)c1ccccc1 | inactive: 2.47%
Cc1ccc(-c2noc(CSc3nnc(Cc4ccccc4)n3-c3cccc(C)c3)n2)cc1 | inactive: -1.96%
O=C(NCC(c1cccnc1)N1CCc2ccccc2C1)C(=O)Nc1ccc(Cl)cc1 (centres undefined) | inactive: -23.2%
Cc1cc(C)c(NC(=O)Cn2c(=O)n(Cc3ccco3)c(=O)c3ccc(C(=O)NC4CCCC4)cc32)c(C)c1 | inactive: 13.6%
Cn1nnc2c(NCCc3ccccc3)ncnc21 | inactive: -11%
Cc1ccc(NC(=O)CSc2cn(CC(=O)N3CCCCCC3)c3ccccc23)cc1 | inactive: 1.58%
CC(=O)c1cccc(NC(=O)c2c(N3CCCC3=O)c3cc(F)ccc3n2C)c1 | inactive: 10.3%
CCOCCCNC(=O)C(c1ccc(C)cc1)N(Cc1cccs1)C(=O)c1ccc(NC(C)=O)cc1 (centres undefined) | inactive: -17%
CCSc1ncc(Cl)c(C(=O)Nc2c(C(=O)c3ccc(C)c(F)c3)oc3ccccc23)n1 | inactive: -9.93%
COc1ccccc1NC(=O)c1c(NC(=O)c2ccco2)sc2c1CCC(C(C)(C)C)C2 (centres undefined) | inactive: 18.5%
CC(C)c1ccc(NC(=O)c2cccc3c2C(=O)N(C2CCCCC2)C3)cc1 | inactive: -1.66%
Cc1ccc2c(c1)N(CC(=O)NCc1ccccc1Br)C(=O)c1cccnc1O2 | inactive: 0.374%
O=C(CCS(=O)(=O)c1nc(-c2ccc3c(c2)OCO3)cc(C(F)(F)F)n1)Nc1ccccc1F | inactive: 11.8%
CCc1cccc(-n2nnc(-c3nc(-c4ccccc4Cl)no3)c2N)c1 | inactive: 8.97%
COc1ccc(Nc2nc3ccccc3c3nnc(C)n23)cc1Cl | inactive: -3.13%
COc1ccccc1CN1COc2ccc3c(oc(=O)c4ccccc43)c2C1 | inactive: 14.4%
CCOC(=O)C1CCC(CN(Cc2ccc(Cl)cc2)S(=O)(=O)c2ccc(F)c(C(=O)Nc3cccc(F)c3)c2)CC1 (centres undefined) | inactive: -8.46%
COc1ccccc1Nc1cc(C(=O)NC2CCCC2)c2ccccc2n1 | inactive: 15.8%
COc1ccc(/C=C/C(=O)Nc2sc3c(c2C(N)=O)CCCC3)cc1 | inactive: 16.6%
COc1ccc(S(=O)(=O)N2CCCCC2)cc1C(=O)Nc1cccc(C(F)(F)F)c1 | inactive: 2.04%
CCOC(=O)c1cnc(NCc2ccccc2OC)c2ccccc12 | inactive: -13.5%
COc1cccc2sc(=NC(=O)c3ccc(S(=O)(=O)N4CCCCC4)cc3)n(C)c12 | inactive: 8.5%
CCn1c(=O)cc(SCC(=O)NCCc2ccc(Cl)cc2)c2ccccc21 | inactive: -3.69%
Cc1ccc(CNC(=O)CCCCCn2c(=O)c3sccc3n(CC(=O)N(C)c3ccccc3)c2=O)cc1 | inactive: 3.69%

SMILES | activity change, negative = cytotoxicity
Cc1ccc(C(=O)Nc2ccc3oc(-c4ccc(C(C)(C)C)cc4)nc3c2)cc1 | inactive: 3.33%
COc1ccc(-c2ccc(=O)n(CC(=O)Nc3ccc(C)cc3C)n2)cc1 | inactive: 5.89%
COc1ccc(-c2noc(CCC(=O)NCc3ccc(C)cc3)n2)cc1 | inactive: 7.88%
O=c1n(Cc2cccc(C(F)(F)F)c2)c2ccccc2c2nc(-c3ccccc3)nn12 | inactive: 12.6%
Cc1ccc(NS(=O)(=O)c2ccc3[nH]c(=O)ccc3c2)cc1N(C)C | inactive: -2.81%
Cc1ccc(NC(=O)c2cc(C)nc3c2c(C)nn3-c2cccc(Cl)c2C)c(C)c1 | inactive: 2.66%
CCc1ccc2oc(C(=O)Nc3cccc(C(F)(F)F)c3)cc(=O)c2c1 | inactive: -4.25%
CSc1nn(Cc2ccc(Cl)cc2)c(N(C(C)=O)C(C)=O)c1S(=O)(=O)c1ccccc1 | inactive: 6.99%
COc1ccc(OC)c(CCNc2ncnc3onc(-c4ccc(F)cc4)c23)c1 | inactive: -2.3%
Fc1cc(Br)ccc1Nc1c2c(nc3nc(-c4cccs4)nn13)CCCC2 | inactive: -26.1%
O=C1CCCc2cc(S(=O)(=O)NCC3CCC(C(=O)Nc4ccccc4F)CC3)ccc2N1 (centres undefined) | inactive: -6.2%
CC(NC(=O)c1ccccc1NC(=O)c1nsc2ccccc12)c1ccccc1 (centres undefined) | inactive: -0.654%
CC(=O)c1ccc(NC(=O)C2=CC(c3ccc4c(c3)OCO4)=NS(=O)(=O)N2C)cc1 | inactive: -7.15%
CCCCOc1ccc(C(=O)N2CCN(CCc3ccccn3)CC2)cc1 | inactive: 5.12%
COC(=O)c1ccc(OC)c(Cn2c(=O)n(Cc3ccccc3)c(=O)c3c2c2cc(OC)ccc2n3C)c1 | inactive: 19.8%
CSc1ccc(-c2nc3ccc(C)cn3c2Nc2ccccc2C)cc1 | inactive: 8.57%
CS(=O)(=O)N(CC(=O)NCCc1ccccc1)c1cc(C(F)(F)F)ccc1Cl | inactive: -2.04%
Cc1cccc(-c2nnn3c2nc(NCCc2ccc(S(N)(=O)=O)cc2)c2cc(Cl)ccc23)c1 | inactive: 3.41%
COc1ccc(N2CCN(C(=O)c3cc4ccc5cccnc5c4[nH]3)CC2)cc1 | inactive: 5.64%
O=C(NCC12CC3CC(CC(C3)C1)C2)c1cc2nc(-c3ccccc3)cc(C(F)(F)F)n2n1 | inactive: 14.3%
Cc1cccc(Oc2nc3c(c(=O)n(C)c(=O)n3C)n2C)c1 | inactive: -17.1%
COc1ccc(OC)c2sc(N3CCN(C(=O)C4CC4)CC3)nc12 | inactive: -17.7%
COc1ccc(S(=O)(=O)n2ccnc2)cc1C(C)(C)C | inactive: 10.6%
CCc1ccccc1N1C(=O)N(Cc2ccccc2C)c2ccccc2S1(=O)=O | inactive: -3.79%
